# Assay results: paper PMC6919601, “Identification of Plasmodium dipeptidyl aminopeptidase allosteric inhibitors by high throughput screening” (PLoS ONE, 2019)
# “And” between values parts separate entries of the source, which are not always exact repeats. Identical values can stand only once. Out of some 110,000 compounds screened, about 230 (0.21%) showed an effect of 50% or more. The list shows a part of the results.
# Target: DPAP1 (Plasmodium falciparum, UniProt Q8IIJ9)
# Test: primary screen, percent inhibition; read by cleavage of a fluorogenic dipeptide substrate; higher = more effect of the substance
# Design: species or system P. falciparum D10 trophozoite lysates; single well
# 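Note: 30 min substrate incubation versus DMSO and 10 µM JCP410 controls.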
# Chain of DPAP1 (Q8IIJ9 whole entry, looked up): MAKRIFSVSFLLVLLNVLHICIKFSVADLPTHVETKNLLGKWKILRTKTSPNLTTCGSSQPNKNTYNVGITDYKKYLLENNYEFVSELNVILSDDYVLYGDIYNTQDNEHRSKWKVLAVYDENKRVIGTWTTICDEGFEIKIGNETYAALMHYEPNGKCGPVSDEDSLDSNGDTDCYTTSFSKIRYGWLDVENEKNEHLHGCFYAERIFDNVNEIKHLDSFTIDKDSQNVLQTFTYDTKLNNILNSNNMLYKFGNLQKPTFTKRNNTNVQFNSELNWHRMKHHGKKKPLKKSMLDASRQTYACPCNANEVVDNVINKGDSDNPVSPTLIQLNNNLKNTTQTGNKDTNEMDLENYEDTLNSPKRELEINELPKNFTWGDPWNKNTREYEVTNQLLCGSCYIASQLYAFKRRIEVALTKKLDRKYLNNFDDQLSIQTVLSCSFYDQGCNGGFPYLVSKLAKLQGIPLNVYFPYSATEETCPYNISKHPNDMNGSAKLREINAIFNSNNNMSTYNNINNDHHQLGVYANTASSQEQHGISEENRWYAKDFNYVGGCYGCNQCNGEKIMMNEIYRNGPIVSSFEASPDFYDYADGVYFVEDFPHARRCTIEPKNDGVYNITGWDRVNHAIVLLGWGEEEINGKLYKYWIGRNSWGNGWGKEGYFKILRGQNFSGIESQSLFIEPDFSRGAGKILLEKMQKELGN
row,Compound,% Inhibition @ 10 uM
1,CCN(CC)c1ccc(/C=C2\C(=O)N(c3ccc(C)cc3)N=C2C)cc1,-7.11%
2,COc1cccc(CN2CCN(C3CCCCC3C)CC2)c1OC (stereo not shown),-6.39%
3,CC1=C(CCN(C)CC(O)c2ccccc2)C(C)(C)CCC1 (stereo not shown),2.1%
4,CCc1nnc(NC(=O)CSc2nnc(CNC(=O)c3cc(OC)c(OC)c(OC)c3)o2)s1,-3.39%
5,N#CCNC(=O)C1CCCCN1c1cccc(-c2cccc(F)c2F)c1 (stereo not shown),0.173%
6,CCc1ccccc1NC(=O)c1cccs1,-0.197%
7,Cc1nn2c(C(F)(F)F)cc(-c3ccc(Cl)cc3)nc2c1C(=O)N1CCN(C)CC1,-1.36%
8,Cc1ccc(S(=O)(=O)c2nc(-c3ccc(F)cc3)oc2S(=O)(=O)C(C)C)cc1,-1.22%
9,COc1ccc(-c2csc(-c3nc(-c4ccc(OC)cc4)cs3)n2)cc1,-7.01%
10,Cc1cc(C)nc(SCc2cccc3ccccc23)n1,5.42%
11,COc1cc2c(cc1OC)C(c1ccccc1Cl)NC(=O)C2 (stereo not shown),-0.436%
12,CCCCCCCOc1ccc(-c2ccc(C(=N)NO)cc2)cc1,1.41%
13,CCN1CCCC1CNC(=O)C(NC(=O)C1CCC(C)CC1)C(C)C (stereo not shown),-4.06%
14,Clc1ccccc1/C=N/OCc1nc2c3c4c(sc3ncn2n1)CCCCC4,3.43%
15,CCCCc1ccc(-c2nc(NC(=O)C3C4CCC(O4)C3C(=O)O)sc2C)cc1 (stereo not shown),0.76%
16,Cc1[nH]nc2c1C1(C(=O)N(Cc3ccc(Cl)cc3)c3ccccc31)C(C#N)=C(N)O2 (stereo not shown),5.05%
17,CCN(CC)CCN(C)CC1CCCCC1,1.74%
18,COC(=O)C1=CN(Cc2ccc(Cl)cc2)C=C(C(=O)OC)C1c1ccc(Br)cc1,3.45%
19,O=C(COc1ccc(S(=O)(=O)NC2CCCCC2)cc1)Nc1cccc(F)c1,1.88%
20,COc1ccccc1-c1scc(C(=O)N[C@@H](CC(C)C)C(=O)NCC#N)c1OC,-8.26%
21,CCCC(=O)NCc1nc2ccccc2n1Cc1ccccc1C,-0.228%
22,Cc1c(C(c2ccc3ccccc3c2)c2c(C)n(C)n(-c3ccccc3)c2=O)c(=O)n(-c2ccccc2)n1C,7.81%
23,CC1(C)C(c2ccc(F)cc2)=[N+]([O-])C(C)(C)C(c2ccc(F)cc2)=[N+]1[O-],-5.74%
24,CCOc1ccccc1NC(=O)C1=C(C)NC(=O)NC1c1ccccc1F (stereo not shown),-0.69%
25,Cc1ccc(NC(=O)Nc2ccccc2C(C)(C)C)cc1,-5.12%

row,Compound,% Inhibition @ 10 uM
1,C=CCN1C(=O)/C(=C\c2ccc(C(=O)O)cc2)C(C(=O)OC)=C1C,0.0538% and -1.6%
2,COc1cccc(CCN2CCC(CNS(=O)(=O)c3ccc(-c4ccc(O)nn4)s3)CC2)c1,0.92%
3,CC1=NN(C(=O)c2ccc(COc3ccc(F)cc3)o2)C(O)(C(F)(F)F)C1 (stereo not shown),3.21%
4,Cc1cc(C)c(S(=O)(=O)NCCN2CCN(S(=O)(=O)c3cc(C)c(C)cc3C)CC2)cc1C,-2.03%
5,CC(C)C[C@H](NC(=O)c1ccc(-c2cnc(Nc3cccnc3)s2)cc1)C(=O)NCCN(CC(C)C)CC(C)C,-3.97%
6,Cc1cccc(-c2nc(CS(=O)CC(=O)N3CCc4ccccc4C3)c(C)o2)c1 (stereo not shown),-1.05%
7,Cc1nc2c(C(=O)NCc3ccco3)cnn2c(O)c1Cl,-3.94%
8,Nc1nc(COc2ccc3ccccc3c2)cs1,-1.38%
9,CCOC(=O)C1=CN(C)C=C(C(=O)OCC)C1c1ccc(OC(F)(F)F)cc1,-5.05%
10,OC1CC(c2ccccc2)OC12CCCCC2 (stereo not shown),4.12%
11,COc1ccc(C2=NN(C(=O)CSC3=NCCS3)C(c3ccc(F)cc3)C2)cc1 (stereo not shown),0.279%
12,CC1=C(C(=O)OCCOc2ccccc2)C(c2ccccc2OC(C)C)C2=C(O)CCCC2=N1 (stereo not shown),5.94%
13,Cc1ccccc1CN1CCN(c2ccccn2)CC1,3%
14,COc1ccc(N2C(=O)C3C(c4ccc(C)cc4)OC4(C(=O)c5ccccc5C4=O)C3C2=O)cc1 (stereo not shown),-2.32%
15,Cc1nc2ccccc2c(=O)n1-c1cc(C(F)(F)F)ccc1Cl,1.61%
16,CN1CCN(Cc2nnc(S)n2-c2ccc3ccccc3c2)CC1,4.17%
17,CCOC(=O)N1CCC(NC(=O)C2CCN(S(=O)(=O)c3cccc4nsnc34)CC2)CC1,-5.22%
18,Cc1cc(C)n(CCc2nc3ccccc3[nH]2)n1,0.219%
19,COc1ccc(NS(=O)(=O)c2ccc(OC)c(OC)c2)cc1OC,-5.07%
20,Cc1ccc(CCNC(=O)c2nnn(-c3cc(C)cc(C)c3)c2N)cc1,-0.112%
21,COc1cccc(C2C3=C(O)CC(c4ccccc4)CC3=NC(C)=C2C(=O)Nc2ccccn2)c1 (stereo not shown),-4.65%
22,Cc1ccc(-c2cn3c(n2)sc2cc(C(=O)NCC4CCCO4)ccc23)c(C)c1 (stereo not shown),4.85%
23,Oc1c(O)c(CN2CCCCC2)c2ccccc2c1CN1CCCCC1,-3.5%
24,CSc1ccc(C2C3=C(O)CCCC3=NC(C)=C2C(=O)N2CCCCC2)cc1 (stereo not shown),-1.48%
25,COc1ccc(OC)c(NC(=O)CCCOc2ccc(Cl)cc2Cl)c1,0.755%

row,Compound,% Inhibition @ 10 uM
1,CCOc1ccc(C2=CC(c3cccc(OC)c3OC)n3ncnc3N2)cc1Cl (stereo not shown),-1.62%
2,COc1ccccc1N(CC(=O)N1CCCCCC1)S(C)(=O)=O,0.755%
3,Cc1ccc(S(=O)(=O)c2ccccc2)cc1S(=O)(=O)Nc1cccc(C(=O)O)c1,-0.216%
4,Cc1cccc2c1CC(C)(C)NC2=C1C(=O)CC(C)(C)CC1=O,-9.11%
5,C=CCOC(=O)c1cc(-c2ccc(/C=N/n3nnnc3N)o2)ccc1Cl,13.2%
6,COc1ccc(NC(=O)CN(c2cccc(Cl)c2)S(=O)(=O)c2ccccc2)cc1OC,-3.39%
7,Cc1cccc(CSCc2ccc(C(=O)NC(C)C)o2)c1,-1.79%
8,NC(=O)c1cc(S(=O)(=O)NCC2CCCO2)cs1 (stereo not shown),0.304%
9,O=C(c1cn(Cc2ccc(F)cc2)c2ccccc12)C1CC1,-8.42%
10,CCSc1ncc(Cl)c(C(=O)N(Cc2ccc(Cl)cc2)Cc2ccco2)n1,2.19%
11,Cc1cc(C(=O)CN2CCOCC2)c(C)n1-c1ccc(Cl)c(Cl)c1,-7.96%
12,COc1cccc(-c2noc(-c3ccccn3)n2)c1,-5.21%
13,CCCc1cc(=O)oc2c3c(ccc12)OCN(Cc1ccc(F)cc1)C3,3.81%
14,Cc1ccc(S(=O)(=O)NCc2ccc(C(=O)N3CCC(Cc4ccccc4)CC3)cc2)cc1,0.208%
15,CC[C@H](NC(=O)[C@H](CS(=O)(=O)Cc1ccccc1OC(F)F)/N=C(\C)NS(=O)(=O)c1cccnc1)C(=O)c1nc2ccccc2o1,-3.14%
16,CCOc1ccc(-c2cc(N)c(C(=O)OC)s2)cc1,1.22%
17,CCOc1ccc(/C=C/C2=CC(C)(C)NC(S)=N2)cc1,1.64%
18,C/C(=C(/NC(=O)c1ccccc1)C(=O)O)c1ccc(Cl)cc1,2.5%
19,O=C(CCc1nc(-c2ccc(Cl)cc2)no1)Nc1cccnc1,0.366%
20,O=C1CCC(=O)N1CCOP1(=O)COc2ccccc2OC1,2.31%
21,O=P(O)(O)Oc1ccccc1P(=O)(c1ccccc1)c1ccccc1,-0.178%
22,O=C(Nc1cccnc1)c1cc(-c2ccccc2O)on1,-3.12%
23,CCOc1ccc(C2C(C#N)=C(N)Oc3[nH]nc(-c4ccccc4)c32)c(OCC)c1 (stereo not shown),7.1%
24,CCCCN(C)C(=O)C1CCN(c2nnc(C)c3c(C)n(-c4ccc(C)cc4)nc23)CC1,8%
25,COc1ccc(C2SCC(=O)N2CCN2CCCCC2)cc1 (stereo not shown),-1.3%

row,Compound,% Inhibition @ 10 uM
1,COc1cc(CN2CCOCC2)ccc1O,1.62%
2,CCOc1cccc(C2NC(=O)NC(C)=C2C(=O)OCC(C)C)c1 (stereo not shown),15.8%
3,CC1(C)N=C(c2ccc(Cl)cc2)C(=S)N1,3.5%
4,COc1ccc(-c2noc(C34CC5CC(CC(C5)C3)C4)n2)cc1,-3.21%
5,CCN1C(=O)N/C(=C/c2ccc(-c3ccccc3)o2)C1=O,-4.21%
6,Nc1c(C(=O)Nc2ccc(F)cc2)sc2nc(-c3ccc4c(c3)OCO4)ccc12,-1.57%
7,CC1(C)CC(O)=C(C(=S)Nc2ccccc2)/C(=N/CCN2CCOCC2)C1,4.67%
8,C=CCN(CC=C)C(=O)Nc1ccccc1,6.18%
9,CCOC(=O)N1CCN(C(=O)c2nn(C)c3c2COc2ccccc2-3)CC1,3.3%
10,CC(C)C[C@H](NC(=O)c1ccc(Br)o1)C(=O)NCC#N,-4.72%
11,Cn1nccc1C(=O)Nc1ccc(Cl)cc1Cl,0.962%
12,Cc1nc(Nc2ccc(Cl)c(Cl)c2)nc(Nc2ccc(Cl)c(Cl)c2)c1[N+](=O)[O-],-1.05%
13,Cc1ccccc1C(=O)NCC(=O)c1ccccc1,1.27%
14,COc1ccc(O)c(C2=NN3C(C2)c2cccc(OC)c2OC3c2ccccc2C)c1 (stereo not shown),-5.36%
15,O=C(CCc1nc2ccccc2[nH]1)NCc1ccc(F)cc1Cl,-4.03%
16,O=C(c1ccc2nc(-c3cccs3)c(-c3cccs3)nc2c1)N1CCC2(CC1)OCCO2,4.22%
17,COc1cc(OC)c(OC)cc1CN1CCN(Cc2ccc(SC)cc2)CC1,-2.16%
18,O=C(NCc1ccc(Cl)cc1Cl)C(=O)NCc1ccc(Cl)cc1Cl,-4.01%
19,CCN(CC)C(=O)CSc1nc(O)cc(=O)n1C,-1.64%
20,CCCCOc1ccc(C(C)NC(=O)C2CCC(CNS(=O)(=O)c3ccccc3)CC2)cc1 (stereo not shown),0.718%
21,Oc1oc(-c2cccc3ccccc23)nc1/C=N/c1cccnc1Cl,-3.26%
22,O=C1CCCc2c1[nH]c1ccc(CN3CCCCC3)cc21,5.03%
